Among all 310,000 compounds or so, about 2,200 (0.71%) showed an effect of 50% or more. Effects have a minus sign here. The list shows a part of the results.
target: human ether-à-go-go-related gene (hERG) potassium channel (human, UniProt Q12809); test: primary screen, population patch clamp on CHO cells stably expressing hERG
Sequence (Q12809 whole entry, looked up): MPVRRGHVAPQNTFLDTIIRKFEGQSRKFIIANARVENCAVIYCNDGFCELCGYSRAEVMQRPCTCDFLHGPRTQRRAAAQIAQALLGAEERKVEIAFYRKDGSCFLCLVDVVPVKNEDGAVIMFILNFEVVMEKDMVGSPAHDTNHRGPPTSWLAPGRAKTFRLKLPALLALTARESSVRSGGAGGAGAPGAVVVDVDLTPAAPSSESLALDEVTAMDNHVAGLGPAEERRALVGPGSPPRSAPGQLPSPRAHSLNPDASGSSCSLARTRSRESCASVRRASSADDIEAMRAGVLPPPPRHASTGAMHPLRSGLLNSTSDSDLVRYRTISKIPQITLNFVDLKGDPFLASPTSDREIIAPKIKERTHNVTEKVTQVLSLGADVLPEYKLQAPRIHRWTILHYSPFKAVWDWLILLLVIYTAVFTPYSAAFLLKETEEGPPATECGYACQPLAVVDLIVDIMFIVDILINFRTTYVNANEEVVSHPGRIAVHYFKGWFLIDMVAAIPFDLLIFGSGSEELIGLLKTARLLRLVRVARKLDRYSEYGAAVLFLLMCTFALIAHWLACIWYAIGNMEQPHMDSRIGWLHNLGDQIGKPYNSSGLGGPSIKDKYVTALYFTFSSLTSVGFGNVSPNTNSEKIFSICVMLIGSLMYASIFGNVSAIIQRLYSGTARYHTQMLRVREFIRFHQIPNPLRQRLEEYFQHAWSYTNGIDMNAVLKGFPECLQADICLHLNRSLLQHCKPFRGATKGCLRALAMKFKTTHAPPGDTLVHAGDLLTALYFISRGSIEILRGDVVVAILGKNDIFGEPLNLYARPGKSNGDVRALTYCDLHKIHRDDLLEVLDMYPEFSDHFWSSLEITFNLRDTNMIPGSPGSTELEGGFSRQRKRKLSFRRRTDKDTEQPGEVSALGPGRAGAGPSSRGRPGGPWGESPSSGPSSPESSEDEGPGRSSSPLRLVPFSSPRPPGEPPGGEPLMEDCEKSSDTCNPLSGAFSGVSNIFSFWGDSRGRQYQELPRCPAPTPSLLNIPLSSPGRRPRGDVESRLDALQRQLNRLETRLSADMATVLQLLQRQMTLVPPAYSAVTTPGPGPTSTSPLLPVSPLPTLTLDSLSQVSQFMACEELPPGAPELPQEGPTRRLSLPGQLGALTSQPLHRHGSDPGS

Row | SMILES | hERG current change (%, negative = inhibition) at 1uM
1 | Cc1ccc2nc(SCC(=O)c3cc(C)n(C)c3C)[nH]c2c1 | -7.16%
2 | CCOC(=O)C(=CNCC(=O)O)C(=O)OCC | -0.725%
3 | CCOc1ccc(CNC(=O)Cn2ccc3cc(S(=O)(=O)N4CCCCCC4)ccc32)cc1 | 7.48%
4 | O=[N+]([O-])c1ccccc1-c1ccc(C(=S)N2CCN(c3ccccc3)CC2)o1 | 9.31%
5 | CC1Cc2ccccc2N1C(=O)COC(=O)Cn1nnc(-c2ccccc2)n1 (stereo not drawn) | 12.9%
6 | COc1ccc(C(=O)Nc2ccc3ccccc3n2)cc1OC | 15.5%
7 | C1CN(CCN2CCOCC2)CCN1 | 14.9%
8 | CCOc1cc(CNCC(C)C)cc(Cl)c1OCc1ccccc1 | 11.5%
9 | CC(C)CC(=O)NC1(C(F)(F)F)C(=O)Nc2c1c(=O)[nH]c(=O)n2Cc1ccco1 (stereo not drawn) | 15.6%
10 | Cc1c(C=O)c(=O)n(-c2ccccc2)n1C | 18.2%
11 | O=C(CCCCCn1c(=O)[nH]c2ccccc2c1=O)NCCc1c[nH]c2ccccc12 | -0.725%
12 | Cc1ccc(C(=O)c2c3ccc([N+](=O)[O-])cc3[n+]([O-])n2CCC[NH3+])cc1.O=C([O-])C(F)(F)F | -14.7%
13 | COC(=O)C1=C(c2ccc(F)cc2OCc2ccccc2)C[C@@H]2CC[C@H]1N2C(=O)NCc1ccc(C(C)(C)C)cc1 | 17.7%
14 | COc1ccc(NS(=O)(=O)c2ccc3[nH]c(=O)[nH]c3c2)cc1OC | 17.6%
15 | Cc1cc(N2C(=O)C3C4c5ccccc5C(c5ccccc54)C3C2=O)no1 (stereo not drawn) | 9.61%
16 | COC(=O)C1=C(c2ccccc2OCc2ccccc2)C[C@@H]2CC[C@H]1N2C(=O)NCc1ccccc1 | -4.02%
17 | COC(=O)c1cc(NC(=O)c2ccc(Cn3cc(Cl)cn3)o2)cc(C(=O)OC)c1 | 8.09%
18 | COc1cccc(/C=N/NC(=O)CNC(=O)CCc2ccccc2)c1O | 24.6%
19 | Cc1ccc(C(=O)NCCCNC(=O)c2ccccn2)cc1 | 11.1%
20 | COc1ccccc1NC(=O)CSc1nnc(Cc2cc(=O)[nH]c(=O)[nH]2)n1-c1ccccc1 | 0.423%
21 | CC1CCCCN1CC(O)COCc1ccccc1.Cl (stereo not drawn) | 13.8%
22 | CCCNC(=O)c1ccc(COc2cccc3ccccc23)o1 | 12.3%
23 | O=C(O/N=C/c1ccc2c(c1)OCO2)c1ccccc1Cl | 4.97%
24 | CCCN(CCC)S(=O)(=O)c1ccc(Cl)c([N+](=O)[O-])c1 | 12%

Reference: article PMC4336329 (PLoS ONE, 2015)
